Whole data set: some 33,000 sequences, median “E-score (-0.5 to 0.5)” near -0.011, cut for the highest 2% near 0.28. Some of the results follow.

For this test, the target named is T1, Gcr1 (UniProt P07261).
T1 sequence: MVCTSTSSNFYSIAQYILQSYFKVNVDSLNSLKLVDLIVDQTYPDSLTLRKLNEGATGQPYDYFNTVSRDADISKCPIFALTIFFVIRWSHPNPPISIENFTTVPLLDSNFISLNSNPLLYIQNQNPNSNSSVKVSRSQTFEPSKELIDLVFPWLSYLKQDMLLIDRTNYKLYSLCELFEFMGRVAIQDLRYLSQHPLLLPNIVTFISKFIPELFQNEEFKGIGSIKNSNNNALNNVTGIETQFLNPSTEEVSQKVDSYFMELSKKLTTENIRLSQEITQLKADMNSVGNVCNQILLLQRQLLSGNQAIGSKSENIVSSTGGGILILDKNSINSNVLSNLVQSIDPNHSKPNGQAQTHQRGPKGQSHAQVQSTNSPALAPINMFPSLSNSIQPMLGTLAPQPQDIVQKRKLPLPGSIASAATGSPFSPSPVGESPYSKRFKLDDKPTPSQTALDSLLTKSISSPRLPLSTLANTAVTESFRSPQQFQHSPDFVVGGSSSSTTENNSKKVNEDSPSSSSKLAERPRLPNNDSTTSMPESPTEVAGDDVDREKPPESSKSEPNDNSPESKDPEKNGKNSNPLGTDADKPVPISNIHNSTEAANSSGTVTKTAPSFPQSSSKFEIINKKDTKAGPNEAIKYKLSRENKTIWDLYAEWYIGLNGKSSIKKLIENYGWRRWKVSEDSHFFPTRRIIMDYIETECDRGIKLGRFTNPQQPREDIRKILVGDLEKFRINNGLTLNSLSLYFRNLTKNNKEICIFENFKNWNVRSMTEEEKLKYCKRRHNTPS
The test can be described thus: PBM E-score (8-mer binding enrichment) (E-score (-0.5 to 0.5)); higher = stronger / more preferred TF binding; most listed sequences are background and not binding sites. As to conditions: protein concentration: 100 nM; construct: GST-full length. As to the method:
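Universal 'all 10-mer' protein binding microarrays (Agilent AMADID 015681) probed with GST-tagged S. cerevisiae TFs (full-length or DBD) made by in vitro transcription/translation (PURExpress), about 100-200 nM. Bound TF was detected with fluorescent anti-GST. Each ungapped 8-mer (which stands for itself and its reverse complement) is scored by the PBM enrichment score (E-score), a modified Wilcoxon-Mann-Whitney statistic from -0.5 to +0.5, computed with the Universal PBM Analysis Suite. Scale: above 0.35 generally sequence-specific binding.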
CATCGCAC: the “PBM E-score” value is -0.162.

With TCAGGACA, the “PBM E-score” value is 0.141.

On to CGCGTCTC, for which the “PBM E-score” value was 0.301.

With ACTCTTAT, the “PBM E-score” value was -0.0208.

As to TATACAGA, the “PBM E-score” value is 0.145.

For the sequence CGCATACA, the “PBM E-score” value came to 0.189.

Consider GCGGTAGA, for which the “PBM E-score” value is -0.304.

In the case of CGGCGTTC, the “PBM E-score” value stood at 0.0712.

GCATGAAC: the “PBM E-score” value is -0.0386.

Regarding GCGGAATA, the “PBM E-score” value was -0.0316.

Turning to CACCATGC, the “PBM E-score” value stood at 0.0319.

As for GAGTTTTA, the “PBM E-score” value is -0.0333.

As for AGCACAAA, the “PBM E-score” value came to 0.00523.

Consider CAGATGGG, for which the “PBM E-score” value was 0.044.

On to ACCATCGT, for which the “PBM E-score” value is -0.305.

With ACCGAATA, the “PBM E-score” value is -0.0481.

As to CAAGACGG, the “PBM E-score” value was -0.218.

For the sequence GTCCCGGA, the “PBM E-score” value was 0.158.

As for CCTGGTAA, the “PBM E-score” value is 0.0703.

As to CCCGACGA, the “PBM E-score” value amounted to 0.0476.

In the case of CCTAGTAG, the “PBM E-score” value was 0.202.

For the sequence ATTGATAA, the “PBM E-score” value turned out to be 0.143.

Consider CCTCGAGA, for which the “PBM E-score” value is -0.0892.

ACCTCACT: the “PBM E-score” value was -0.16.

Consider ACACGTAG, for which the “PBM E-score” value was determined as 0.123.

For AAGCTGCT, the “PBM E-score” value worked out at 0.185.

Turning to TAGACGGA, the “PBM E-score” value was -0.0232.

On to GAGCTTTA, for which the “PBM E-score” value is -0.131.

Regarding GCGGGACC, the “PBM E-score” value came to 0.0998.

Turning to GCACGCAC, the “PBM E-score” value was -0.0614.

On to AACGGGAG, for which the “PBM E-score” value came out at 0.056.

Consider TCACGCGA, for which the “PBM E-score” value was -0.0406.

As for TCTCGGCA, the “PBM E-score” value was found to be 0.152.

Regarding CCCCTTAA, the “PBM E-score” value turned out to be 0.0343.

As to ACACATAA, the “PBM E-score” value was -0.0773.

For TTTTAAAA, the “PBM E-score” value was determined as 0.153.

Consider AGTGTACA, for which the “PBM E-score” value was determined as 0.0281.

For AGGGGAGA, the “PBM E-score” value is -0.0201.

Turning to CGTAGCAA, the “PBM E-score” value is -0.0485.

GTGGCTTA: the “PBM E-score” value was -0.00723.

For the sequence CGGTAGGC, the “PBM E-score” value was -0.0818.

In the case of CTTCCAAC, the “PBM E-score” value worked out at 0.181.

With CGCAGTCC, the “PBM E-score” value was -0.0173.

As to GAGGCTTA, the “PBM E-score” value was -0.14.

CGAAAGTC: the “PBM E-score” value was -0.144.

Consider CACTGCGC, for which the “PBM E-score” value is 0.0628.

For the sequence AAAGAGTG, the “PBM E-score” value was determined as 0.0629.

For AGTAAAAG, the “PBM E-score” value was found to be 0.181.

For the sequence GTCCACTA, the “PBM E-score” value stood at 0.334.

Regarding GTCAAGTA, the “PBM E-score” value was -0.284.

For the sequence AGGAGAGA, the “PBM E-score” value turned out to be 0.0991.

As to GAGACTCC, the “PBM E-score” value was -0.0481.

For CAAAAGTG, the “PBM E-score” value was 0.0522.

Regarding CGCTGTCC, the “PBM E-score” value is -0.254.

On to GGTGGTAA, for which the “PBM E-score” value was -0.0891.

Turning to ACTCTACC, the “PBM E-score” value is -0.158.

In the case of TGGAAGAA, the “PBM E-score” value came out at 0.117.

For ATCATGCC, the “PBM E-score” value was -0.00305.

For ATTGCGAA, the “PBM E-score” value amounted to 0.129.

Consider AGTCGGTA, for which the “PBM E-score” value was -0.0934.

As for AACCCAGG, the “PBM E-score” value came out at 0.056.

Take TATGGTAA: the “PBM E-score” value worked out at 0.00173.

Regarding GGCATGTA, the “PBM E-score” value was determined as 0.0177.

In the case of GCGTGGAA, the “PBM E-score” value is -0.157.

For the sequence GTACAAAC, the “PBM E-score” value is 0.012.

Turning to ACCATGTG, the “PBM E-score” value is -0.0658.

As to AAAGCGTC, the “PBM E-score” value stood at 0.013.

For TCCCATCA, the “PBM E-score” value was -0.0692.

Turning to ATAATTAG, the “PBM E-score” value came to 0.154.

In the case of CCCACAGC, the “PBM E-score” value amounted to 0.221.

As to AAAGTACT, the “PBM E-score” value was -0.118.

Consider AGCCCGGC, for which the “PBM E-score” value was -0.0879.

As for AACGAGTC, the “PBM E-score” value was -0.0816.

Consider AGCCTCGC, for which the “PBM E-score” value is -0.278.

Take AGCATTGG: the “PBM E-score” value is -0.112.

For the sequence CATAACCA, the “PBM E-score” value was -0.118.

For ATTAGTGA, the “PBM E-score” value is 0.0812.

As for GTGAGTCA, the “PBM E-score” value is -0.19.

On to CCAGACCG, for which the “PBM E-score” value was -0.134.

With CATCCACC, the “PBM E-score” value stood at 0.0114.

GTAAGAAA: the “PBM E-score” value was -0.021.

With ATAGAATC, the “PBM E-score” value is 0.186.

For the sequence AATTACGG, the “PBM E-score” value came to 0.236.

Consider ACATGATG, for which the “PBM E-score” value is -0.201.

On to AAAAAGAA, for which the “PBM E-score” value is 0.275.

With GCTCTACC, the “PBM E-score” value was -0.226.

Source of the values: the supplement of paper PMC3334620.
